The target of assay [1] is T1, YueB (full length), bacterial two-hybrid fusion (Bacillus subtilis 168) (UniProt O32101).
T1 sequence: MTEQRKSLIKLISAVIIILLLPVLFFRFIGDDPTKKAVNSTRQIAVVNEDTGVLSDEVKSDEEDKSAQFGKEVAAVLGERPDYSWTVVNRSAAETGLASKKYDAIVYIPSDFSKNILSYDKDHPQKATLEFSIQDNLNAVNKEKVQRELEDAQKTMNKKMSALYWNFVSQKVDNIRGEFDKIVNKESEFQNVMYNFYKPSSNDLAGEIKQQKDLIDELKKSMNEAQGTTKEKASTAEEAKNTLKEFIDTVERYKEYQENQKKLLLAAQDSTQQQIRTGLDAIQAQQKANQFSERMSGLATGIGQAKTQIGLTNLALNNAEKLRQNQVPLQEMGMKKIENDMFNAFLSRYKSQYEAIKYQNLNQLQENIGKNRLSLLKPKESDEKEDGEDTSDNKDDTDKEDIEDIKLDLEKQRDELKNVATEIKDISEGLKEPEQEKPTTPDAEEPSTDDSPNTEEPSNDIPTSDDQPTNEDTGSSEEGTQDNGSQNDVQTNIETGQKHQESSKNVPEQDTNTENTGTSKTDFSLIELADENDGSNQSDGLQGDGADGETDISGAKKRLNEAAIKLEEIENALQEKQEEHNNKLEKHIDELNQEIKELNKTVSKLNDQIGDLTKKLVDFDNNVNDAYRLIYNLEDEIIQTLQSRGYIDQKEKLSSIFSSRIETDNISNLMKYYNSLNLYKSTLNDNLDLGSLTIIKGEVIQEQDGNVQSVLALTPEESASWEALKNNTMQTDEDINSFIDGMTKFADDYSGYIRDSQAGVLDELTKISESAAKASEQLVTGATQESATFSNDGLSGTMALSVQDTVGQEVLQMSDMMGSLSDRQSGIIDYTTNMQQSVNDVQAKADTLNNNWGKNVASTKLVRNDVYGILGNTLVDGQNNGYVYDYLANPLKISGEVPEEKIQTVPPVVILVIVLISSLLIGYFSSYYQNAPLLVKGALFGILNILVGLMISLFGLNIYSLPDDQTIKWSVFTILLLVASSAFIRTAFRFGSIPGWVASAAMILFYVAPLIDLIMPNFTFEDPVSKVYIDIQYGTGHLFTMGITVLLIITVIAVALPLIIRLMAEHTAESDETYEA
The assay is described as follows: two-hybrid; bacterial two-hybrid (BACTH) in E. coli BTH101; T25 (pKT25/pKNT25) and T18 (pUT18/pUT18C) fusions; spots on LB with X-Gal and IPTG, 25°C, imaged after 48 h.

In assay [2] the target is T2, YukC (full length), bacterial two-hybrid fusion (Bacillus subtilis 168) (UniProt P71070).
T2 sequence: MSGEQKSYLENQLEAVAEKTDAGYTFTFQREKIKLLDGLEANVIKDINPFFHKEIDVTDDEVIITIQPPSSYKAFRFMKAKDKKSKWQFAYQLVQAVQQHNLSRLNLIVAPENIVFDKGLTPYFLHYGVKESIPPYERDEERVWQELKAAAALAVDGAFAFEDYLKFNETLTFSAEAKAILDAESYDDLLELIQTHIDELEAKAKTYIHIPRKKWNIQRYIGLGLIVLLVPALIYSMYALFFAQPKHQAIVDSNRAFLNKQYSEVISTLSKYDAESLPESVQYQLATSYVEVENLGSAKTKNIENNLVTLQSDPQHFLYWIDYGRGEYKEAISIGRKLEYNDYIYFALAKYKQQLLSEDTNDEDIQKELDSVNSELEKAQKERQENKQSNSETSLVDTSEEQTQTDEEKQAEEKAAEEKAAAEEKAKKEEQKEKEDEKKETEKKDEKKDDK
Described as above.

These are yes or no findings as the source states them, for the method shown. Some binding calls cover weakened binding; strength is not graded here. Sequences can lack the tags named with a protein.

B1: YukC (full length), bacterial two-hybrid fusion (protein, UniProt P71070 1-451)
chain: MSGEQKSYLENQLEAVAEKTDAGYTFTFQREKIKLLDGLEANVIKDINPFFHKEIDVTDDEVIITIQPPSSYKAFRFMKAKDKKSKWQFAYQLVQAVQQHNLSRLNLIVAPENIVFDKGLTPYFLHYGVKESIPPYERDEERVWQELKAAAALAVDGAFAFEDYLKFNETLTFSAEAKAILDAESYDDLLELIQTHIDELEAKAKTYIHIPRKKWNIQRYIGLGLIVLLVPALIYSMYALFFAQPKHQAIVDSNRAFLNKQYSEVISTLSKYDAESLPESVQYQLATSYVEVENLGSAKTKNIENNLVTLQSDPQHFLYWIDYGRGEYKEAISIGRKLEYNDYIYFALAKYKQQLLSEDTNDEDIQKELDSVNSELEKAQKERQENKQSNSETSLVDTSEEQTQTDEEKQAEEKAAEEKAAAEEKAKKEEQKEKEDEKKETEKKDEKKDDK
B1: the binding result in assay [1] and in assay [2] was “binds” in each case.
